Data from PubChem BioAssay AID463173 (ICCB-Longwood Screening Facility, Harvard Medical School, 2010).
Among all 52,000 compounds or so, about 4,300 (8.3%) were called active. No stated cut-off is given here; in the data, active means survival mostly below about 52% (no sharp cut-off); inactive means mostly above about 56%. This is one part of the list.

These compounds were tested on DeltatarO mutant (assay: growth inhibition of S. aureus wild type versus tarO mutant, primary screen, teichoic acid synthesis inhibitors, RN4220, OD600 (AID 463173)). Settings: OD600, 18 h, hits give low values, screened at 18.75 µg/mL (by protocol).

**Q.** `CCN(Cc1ccccc1)C(=O)Cn1c(=O)n(-c2ccc(C)c(C)c2)c(=O)c2c(C)c(C)sc21` was tested. Which survival did it give?
**A.** inactive: 84%

**Q.** For `COc1ccc(CNc2oc(-c3ccc(COc4ccccc4C)o3)nc2C#N)cc1`, which survival is on record?
**A.** inactive: 50%

**Q.** For `O=C(Nc1cccc(C(F)(F)F)c1)c1cc2ccc3cccnc3c2[nH]1`, which survival is on record?
**A.** inactive: 72%

**Q.** For `Cc1ccc(-c2nc(C)c(CCNS(=O)(=O)c3ccc(F)c(C(F)(F)F)c3)s2)cc1`, which survival is on record?
**A.** active: -4%

**Q.** With `CCn1cc(C(=O)N2CCN(c3ccccc3F)CC2)c(=O)c2cc(S(=O)(=O)N(C)C)ccc21` as the compound, how does the survival read?
**A.** inactive: 122%

**Q.** With `COc1cccc(N2CCN(C(=O)Cn3c(-c4cccs4)cc4ccccc43)CC2)c1` as the compound, how does the survival read?
**A.** inactive: 104%

**Q.** `CC1=C(C(=O)Nc2ccc(C)cc2C)C(c2cccs2)n2nc(SCc3ccccc3Cl)nc2N1` (configuration not stated) was tested. Which survival did it give?
**A.** inactive: 61%

**Q.** For `COc1ccc(CN2C(=O)c3ccccc3C2C(=O)NCCc2ccccc2)c(OC)c1` (configuration not stated), which survival is on record?
**A.** inactive: 86%

**Q.** `Cc1cc2oc(C(=O)Nc3ccc(S(=O)(=O)N4CCCCCC4)cc3)cc(=O)c2cc1C` was tested. Which survival did it give?
**A.** active: 42%

**Q.** Which survival does the source give for `CCN(CC)c1ccc(NS(=O)(=O)c2cc3[nH]c(=O)c(=O)[nH]c3cc2C)c(C)c1` here?
**A.** inactive: 74%

**Q.** `CCN(CC)c1ccc(NC(=O)CSc2nc(-c3cccs3)cc(C(F)(F)F)n2)cc1` was tested. Which survival did it give?
**A.** inactive: 128%

**Q.** Which survival does the source give for `Cc1ccc(NC(=O)Nc2nnc(N(C)Cc3ccccc3)s2)c(C)c1` here?
**A.** inactive: 81%

**Q.** With `CC(C)c1ccc(OC(=O)c2cc(-c3ccccc3)on2)cc1` as the compound, how does the survival read?
**A.** inactive: 109%

**Q.** For `CCOc1ccc(-n2nc3ccc(NC(=O)COc4ccc(OC)cc4)cc3n2)cc1`, which survival is on record?
**A.** inactive: 74%

**Q.** With `COC(=O)c1ccc(C2C(C(=O)Nc3ccccc3)=C(C)Nc3nc4ccccc4n32)cc1` (configuration not stated) as the compound, how does the survival read?
**A.** inactive: 70%

**Q.** With `CC(=O)N1CCc2c(sc3nc(SCC(C)C)n(-c4ccc(F)c(Cl)c4)c(=O)c23)C1` as the compound, how does the survival read?
**A.** inactive: 63%

**Q.** For `O=C(NCCN1CCCC1)c1ccc2c(c1)OCCO2`, which survival is on record?
**A.** inactive: 99%

**Q.** How did the survival turn out when `CCCSc1ncc(Cl)c(C(=O)Nc2c(C(=O)Nc3ccc(C)cc3)oc3ccccc23)n1` was run?
**A.** inactive: 62%

**Q.** Which survival does the source give for `COc1cc(C)cc2oc(=O)c(CC(=O)NCc3cccc(Cl)c3)c(C)c12` here?
**A.** inactive: 58%

**Q.** For `CCc1nc(Oc2cccc(F)c2)c2oc3ccccc3c2n1`, which survival is on record?
**A.** inactive: 92%

**Q.** With `Cc1ccc(NC(=O)CN2C(=O)CCSc3ccc(S(=O)(=O)N4CCCC4)cc32)cc1C` as the compound, how does the survival read?
**A.** inactive: 99%

**Q.** `CC1=C(c2ccc(C)cc2)S(=O)(=O)NC1=NCCCN1CCN(c2ccc(F)cc2)CC1` was tested. Which survival did it give?
**A.** inactive: 69%

**Q.** How did the survival turn out when `Cc1ccc(C)c(OC(=O)CSc2nnc(CNC(=O)c3ccccc3)o2)c1` was run?
**A.** inactive: 105%

**Q.** For `O=C(N/N=C/c1c(O)ccc2ccccc12)C1CC12CCC2` (configuration not stated), which survival is on record?
**A.** inactive: 83%

**Q.** How did the survival turn out when `CC(C)(C)c1ccc(C(=O)NC2CCNCC2)cc1` was run?
**A.** inactive: 102%

**Q.** `Cc1cc(NC(=O)C2CCN(S(=O)(=O)c3ccc(Br)s3)CC2)ccc1Br` was tested. Which survival did it give?
**A.** inactive: 79%

**Q.** For `Cc1ccc(NC(=O)C2C3C=CC4(O3)C2C(=O)N(c2ccccc2F)C4C(=O)NC2CCCC2)cc1` (configuration not stated), which survival is on record?
**A.** inactive: 68%

**Q.** Which survival does the source give for `Cc1ccc(Cl)cc1N1CCN(Cc2nnc(-c3ccc4c(c3)OCO4)o2)CC1` here?
**A.** inactive: 80%

**Q.** `Cc1ccc(CNC(=O)CSc2n[nH]c(-c3ccc(F)cc3)n2)cc1` was tested. Which survival did it give?
**A.** inactive: 122%

**Q.** With `O=C(N/N=C/c1ccccc1)c1[nH]ncc1I` as the compound, how does the survival read?
**A.** inactive: 104%

**Q.** With `CC1=C(C(=O)Nc2ccccc2)C(c2cccn2C)n2ncnc2N1` (configuration not stated) as the compound, how does the survival read?
**A.** inactive: 95%

**Q.** How did the survival turn out when `Cc1ccc(C)c(Cn2c(C3CC(=O)N(c4ccccc4C)C3)nc3ccccc32)c1` (configuration not stated) was run?
**A.** inactive: 80%

**Q.** For `Cc1ccc(Nc2nc(C)nc(N)c2S(=O)(=O)c2ccccc2)cc1`, which survival is on record?
**A.** inactive: 94%

**Q.** Which survival does the source give for `COc1ccc(Cn2c(=O)c3oc4ccccc4c3n(CC(=O)Nc3ccc(F)cc3F)c2=O)cc1` here?
**A.** inactive: 75%

**Q.** For `O=C(NCCc1ccccc1Cl)c1ccc2c(c1)nc1n2CCCCC1`, which survival is on record?
**A.** inactive: 80%

**Q.** With `COc1cccc(CCNC(=O)c2c(O)nc3ccccn3c2=O)c1` as the compound, how does the survival read?
**A.** active: 48%

**Q.** Which survival does the source give for `CC(C)c1cccc(OCCn2c(-c3ccc(Cl)cc3)nc3ccccc3c2=O)c1` here?
**A.** inactive: 78%

**Q.** For `c1coc(C2NCCS2)c1` (configuration not stated), which survival is on record?
**A.** inactive: 93%

**Q.** Which survival does the source give for `CCOc1ccccc1NC(=O)c1cnn2c(C(F)F)cc(-c3ccccc3)nc12` here?
**A.** active: 58%

**Q.** `COCCCNC(=O)C1CCN(c2nn3cc(-c4ccc(F)cc4)nc3s2)CC1` was tested. Which survival did it give?
**A.** inactive: 76%

**Q.** For `CCC(C)NC(=O)c1nn(-c2ccc(C)cc2)c(=O)n(C)c1=O` (configuration not stated), which survival is on record?
**A.** inactive: 73%

**Q.** With `Cc1ccc(OCC(=O)N(Cc2ccco2)Cc2ccc(C)o2)cc1` as the compound, how does the survival read?
**A.** inactive: 65%

**Q.** With `COc1cc2c(=O)n(CCC(=O)NCC3CCCO3)c(=O)n(CC(=O)Nc3ccc(C)c(C)c3)c2cc1OC` (configuration not stated) as the compound, how does the survival read?
**A.** inactive: 58%

**Q.** Which survival does the source give for `CC1=C(C(=O)Nc2ccccc2)C(c2cccs2)n2nc(SCc3ccccc3F)nc2N1` (configuration not stated) here?
**A.** inactive: 75%

**Q.** `CCOc1ccc(NC(=O)/C(C#N)=C\c2cc(C)n(C)c2C)cc1` was tested. Which survival did it give?
**A.** inactive: 68%

**Q.** How did the survival turn out when `Cc1ccc(C)c(NC(=O)c2cc(S(=O)(=O)N3CCCCCC3)ccc2F)c1` was run?
**A.** inactive: 102%

**Q.** `Cc1ccccc1NC(=O)CN1CCC(n2nnc3ccccc32)CC1` was tested. Which survival did it give?
**A.** inactive: 95%

**Q.** For `CN(C)CCN(Cc1ccco1)C(=O)c1oc2ccccc2c1NC(=O)c1ccccc1`, which survival is on record?
**A.** inactive: 81%

**Q.** For `Cc1ccccc1C(=O)OCc1cc(=O)n2nc(-c3cccs3)sc2n1`, which survival is on record?
**A.** inactive: 117%

**Q.** For `O=C(CSc1nc2ccccc2o1)c1ccc2c(c1)OCCO2`, which survival is on record?
**A.** inactive: 80%

**Q.** How did the survival turn out when `CCCc1nn2c(=O)cc(COC(=O)c3ccccc3NC(=O)c3ccc(Cl)cc3)nc2s1` was run?
**A.** inactive: 92%

**Q.** `COc1cc(C2c3c(-c4cc(C)ccc4O)n[nH]c3C(=O)N2CCCO)ccc1OCCC(C)C` (configuration not stated) was tested. Which survival did it give?
**A.** inactive: 58%

**Q.** With `CCc1ccccc1Nc1cc(C(=O)NC(C)c2ccccc2)c2ccccc2n1` (configuration not stated) as the compound, how does the survival read?
**A.** inactive: 86%

**Q.** How did the survival turn out when `Cc1ccc(NC(=O)C(C)Sc2nc(=O)cc(N)n2-c2ccccc2)cc1` (configuration not stated) was run?
**A.** inactive: 55%

**Q.** For `CCOC(=O)c1cccc(NC(=O)CCn2nc(C)c(S(=O)(=O)N3CCCCC3)c2C)c1`, which survival is on record?
**A.** inactive: 108%

**Q.** With `CCOc1ccc(NC(=O)CN2CCCN(Cc3cc(C)ccc3C)S2(=O)=O)cc1` as the compound, how does the survival read?
**A.** inactive: 71%

**Q.** Which survival does the source give for `CCOC(=O)c1ccccc1NC(=O)N1CCC(CN2CCCCC2)CC1` here?
**A.** inactive: 83%
